Experimental data: US20090143279A1 (priority 2007, published 2009)

What follows are compounds tested on cellular ATP levels. Details: not given.

| Compound | ATP |
| --- | --- |
| C[C@]12CC[C@H]3C(=CCc4cc(O)ccc43)[C@@H]1CCC2=O [equilin] | −0.045 |
| CC(=O)N(CC(O)CO)c1c(I)c(C(=O)NCC(O)CO)c(I)c(C(=O)NCC(O)CO)c1I (centres unmarked) [iohexol] | 0.395 |
| CO/N=C(\C(=O)N[C@@H]1C(=O)N2C(C(=O)O)=C(CSc3nc(=O)c(=O)[nH]n3C)CS[C@H]12)c1csc(N)n1 [ceftriaxone] | −0.735 |

Same assay, conditions: 10.86 μM; composite Z-score vs DMSO

| Compound | ATP |
| --- | --- |
| CC(C)[N+](C)(CCOC(=O)C1c2ccccc2Oc2ccccc21)C(C)C [propantheline] | 0.808 |

Same assay, conditions: 12.18 μM; composite Z-score vs DMSO

| Compound | ATP |
| --- | --- |
| CCN(CC)CCNC(=O)c1cc(S(C)(=O)=O)ccc1OC [tiapride] | 0.231 |

Same assay, conditions: 20 μM; composite Z-score vs DMSO

| Compound | ATP |
| --- | --- |
| COc1c2occc2cc2ccc(=O)oc12 [methoxsalen] | 0.776 |
| CN(C)C(=S)SSC(=S)N(C)C [thiram] | −8.121 |
| polymyxin b sulfate | 1.157 |
| CC(C)(C)NCC(O)c1ccccc1Cl (centres unmarked) [tulobuterol] | −0.653 |
| Cc1cc(O)cc(C)c1Cl [chloroxylenol] | −1.134 |
| CCCC(=O)O[C@]1(C(=O)CO)CC[C@H]2[C@@H]3CCC4=CC(=O)CC[C@]4(C)[C@H]3[C@@H](O)C[C@@]21C [hydrocortisone butyrate] | −0.353 |
| COc1cc2ccc(=O)oc2cc1O [scopoletin] | 2.444 |
| CC(C)[N+](C)(CCOC(=O)C1c2ccccc2Oc2ccccc21)C(C)C [propantheline] | 0.070 |
| CCN(CC)CCNC(=O)c1cc(S(C)(=O)=O)ccc1OC [tiapride] | 0.797 |

Same assay, conditions: Conc 20 μM; normalized score vs mock-treated (DMSO) wells

| Compound | ATP (composite Z-score) |
| --- | --- |
| CC(=O)Oc1cccc2c1C(=O)c1c(OC(C)=O)cc(C(=O)O)cc1C2=O [diacerin] | 0.672 |
| CC(=O)OCC(=O)[C@@]1(O)CC[C@H]2[C@@H]3C[C@H](C)C4=CC(=O)C=C[C@]4(C)[C@H]3[C@@H](O)C[C@@]21C [6alpha-methylprednisolone acetate] | 0.169 |
| CS(=O)(=O)CCCCN=C=S [erysolin] | −3.023 |
| COc1cc2c3cc1Oc1cc(ccc1O)CC1c4c(cc(OC)c(O)c4Oc4ccc(cc4)CC3N(C)CC2)CCN1C (centres unmarked) [bebeerine] | 0.034 |
| O=C(O)Cc1cc(I)c(Oc2cc(I)c(O)c(I)c2)c(I)c1 [tetrac] | 1.510 |
| CC(=O)O[C@@H]1CC2C(C)(C)C(=O)C3OC3[C@]2(C)C2CC[C@@]3(C)[C@H](c4ccoc4)OC(=O)C4OC43[C@@]21C (some centres unmarked) [epoxygedunin] | 0.227 |
| C=C[C@@](C)(O)CC[C@H]1C(=C)C[C@H](O)[C@H]2C(C)(C)CCC[C@]12C [larixol] | 0.051 |

Same assay, conditions: Table 4; C2C12 myotubes, 48 h, composite Z-score

| Compound | ATP |
| --- | --- |
| dihydromundulone [reference compound] | −0.792 |
| COc1ccc([C@H]2Oc3c(I)c(OC)cc(OC)c3C[C@@H]2O)cc1OC [8-iodocatechin tetramethyl ether, reference compound] | 0.343 |

Same assay, conditions: composite Z-score vs DMSO wells; Conc 20 μM

| Compound | ATP |
| --- | --- |
| CC(=O)Nc1ccc(OC(=O)c2ccccc2O)cc1 [acetaminosalol] | 1.128 |
| O=C(O)CN(CC(=O)O)Cc1cc2c(cc1O)Oc1cc(O)c(CN(CC(=O)O)CC(=O)O)cc1C21OC(=O)c2ccccc21 [calcein] | 2.057 |
| CC[N+]1(C)CCCC(OC(=O)C(O)(c2ccccc2)c2ccccc2)C1 (centres unmarked) [pipenzolate] | 1.043 |
| CON [methoxyamine] | 0.789 |
| NCCNC(=O)c1ccc(Cl)cc1 [N-(2-aminoethyl)-4-chlorobenzamide] | 0.830 |
| Cc1noc(NS(=O)(=O)c2ccc(N)cc2)c1C [sulfisoxazole] | 0.384 |

Same assay, conditions: composite Z-score vs DMSO; Conc 4.42 μM

| Compound | ATP |
| --- | --- |
| Cc1c(N)c(=O)n(-c2ccccc2)n1C [4-aminoantipyrine] | −1.148 |

Same assay, conditions: composite Z-score vs DMSO; Conc 10.62 μM

| Compound | ATP |
| --- | --- |
| CC(=O)[C@@]1(O)CC[C@H]2[C@@H]3C[C@H](C)C4=CC(=O)C=C[C@]4(C)[C@@]3(F)[C@@H](O)C[C@@]21C [fluorometholone] | −0.458 |

Same assay, conditions: composite Z-score vs DMSO; Conc 20 μM

| Compound | ATP |
| --- | --- |
| CCOc1nc2cccc(C(=O)OC(C)OC(=O)OC3CCCCC3)c2n1Cc1ccc(-c2ccccc2-c2nn[nH]n2)cc1 (centres unmarked) [candesartan cilextil] | 0.721 |
| COc1cc(C=CC=O)cc(OC)c1OC [3,4,5-trimethoxycinnamaldehyde] | 0.145 |
| C=C1CCC2C(CC2(C)C)C(=O)CCC1O (centres unmarked) [isokobusone] | −0.166 |
| CCN(CCCc1ccccc1)CCCc1ccccc1 [alverine citrate] | −2.140 |
| CC(C)C[C@H](N)C(=O)N[C@@H](C)C(=O)O [L-leucyl-L-alanine] (H-Leu-Ala-OH) | 0.475 |
| O[C@H]1[C@H]2c3cc4c(cc3CN3CCC(=C[C@@H]1O)[C@H]23)OCO4 [Lycorine, reference compound] | 0.198 |
| C/C=C(\C)C(=O)O[C@H]1C[C@@H](OC(C)=O)[C@@]2(C(=O)OC)CO[C@H]3[C@@H](O)[C@@](C)([C@]45O[C@@]4(C)[C@H]4C[C@@H]5O[C@@H]5OC=C[C@@]54O)[C@H]4[C@]1(CO[C@]4(O)C(=O)OC)[C@@H]32 [azadirachtin] | 0.299 |
| N[C@@H](C(=O)N[C@@H]1C(=O)N2C(C(=O)O)=C(Cl)CS[C@H]12)c1ccccc1 [cefaclor] | 0.137 |
| CC(=O)c1cc(CC=C(C)C)c(O)c(CC=C(C)C)c1 [3,5-diprenyl-4-hydroxyacetophenone] | −0.362 |
| NNC(=O)c1ccncc1.Nc1ccc(C(=O)O)c(O)c1 [pasiniazid] | 1.328 |
| COC1=CC(=O)C(C(=O)c2ccccc2)=CC1=O [2-benzoyl-5-methoxybenzoquinone] | 0.353 |
| CC(C)CCC[C@@H](C)[C@H]1CC[C@H]2[C@@H]3CCC4CCCC[C@]4(C)[C@H]3CC[C@]12C (some centres unmarked) [cholestane] | 0.220 |
| Cc1cc(O)c(C=O)c(O)c1C(=O)O [haematommic acid] | 2.409 |
| gentamicin sulfate | −0.234 |
| CC(=O)O[C@@H]1C[C@H]2C(C)(C)[C@H](O)C[C@H](O)[C@]2(C)[C@H]2CC[C@@]3(C)[C@H](c4ccoc4)OC(=O)[C@H]4O[C@]43[C@@]21C [1,3-dideacetylkhivorin] | 0.959 |
| CCNC(=O)CC[C@H](N)C(=O)O [theanine] | 0.157 |
| O[C@H]1[C@H](O)[C@@H](O)C2OC[C@H]1O2 [anhydroglucose] | 0.059 |
| C[C@H](N)CO [I-alaninol] | 0.737 |
| CC(N/C(=N\C#N)Nc1ccncc1)C(C)(C)C (centres unmarked) [pinacidil] | −0.566 |
| O=C(O)/C=C/C=C/c1ccccc1 [juarezic acid] | 0.624 |
| C[C@@H]1C[C@H]2CC(=O)[C@H]3CCCN4CCC[C@H]2[C@]34C1 [lycopodine] | −0.283 |

Same assay, conditions: composite Z-score vs mock-treated (DMSO) wells; Conc 20 μM

| Compound | ATP |
| --- | --- |
| COC(=O)c1cccc2cc(OC)c(OC)c(OC)c2c1=O | 0.028 |
| COc1ccc([C@@H](C)C(=O)c2ccc(O)cc2O)cc1 [(R)-angolensin] | 1.320 |
| COc1ccc([C@H]2Oc3c(I)c(OC)cc(OC)c3C[C@@H]2O)cc1OC [8-iodocatechin tetramethyl ether, reference compound] | 0.343 |
| 3beta-chloroandrostanone | 1.376 |
| C=C1C[C@]23C[C@@]1(O)CC[C@H]2[C@@]12C=C[C@H](O)[C@@](C)(C(=O)O1)[C@H]2[C@@H]3C(=O)O [gibberellic acid] | 0.413 |
| COC(=O)C[C@H]1C(C)(C)[C@@H](OC(C)=O)[C@@H]2CC3=C4CC(=O)O[C@@H](c5ccoc5)[C@]4(C)CC[C@@H]3[C@@]1(C)C2=O [fissinolide] | 0.175 |
| COc1ccc2c(c1)O[C@@H]1COc3cc(OC)c(OC)cc3[C@@H]1C2=O [mundoserone, reference compound] | −1.275 |

Same assay, conditions: composite Z-score vs mock-treated (DMSO) wells; concentration of each compound in μM

| Compound | ATP |
| --- | --- |
| nonoxynol-9 | −0.737 |
| c1ccc2c3c([nH]c2c1)[C@H]1[C@H]2CC[C@H]([C@@H]4CCCN[C@@H]42)N1CC3 [nitrarine] | −0.894 |

Same assay, conditions: normalized composite Z-score vs mock-treated (DMSO) wells; Conc 20 μM

| Compound | ATP |
| --- | --- |
| CC1(C)C(=O)C=C[C@]2(C)[C@H]3CC[C@@]4(C)[C@H](c5ccoc5)OC(=O)[C@H]5O[C@]54[C@]3(C)C=C[C@@H]12 [7-desacetoxy-6,7-dehydrogedunin] | 2.695 |
| phytol | −0.426 |
| CC(C)(O)[C@H]1CC[C@]2(C)[C@H]3CC[C@@H]4[C@@]5(C)CCCC(C)(C)[C@@H]5[C@@H](O)C[C@@]4(C)[C@]3(C)CC[C@@H]12 [zeorin] | −0.326 |
| dihydromundulone [reference compound] | −0.792 |
| NCCC(=O)c1ccccc1N [kynuramine] | 2.131 |
| O=C1C[C@@H](c2ccc(O)cc2)Oc2cc(O)ccc21 [liquiritigenin] | −0.998 |
| methylorsellinic acid, ethyl ester | 0.341 |
| C[C@@H]1O[C@@H](O[C@H]2[C@H](Oc3cc(O)c4c(=O)cc(-c5ccc(O)cc5)oc4c3)O[C@H](CO)[C@@H](O)[C@@H]2O)[C@H](O)[C@H](O)[C@H]1O [rhoifolin] | 0.053 |
| CC(=O)O[C@@H]1CC2C(C)(C)[C@H](O)CC[C@]2(C)C2CC[C@@]3(C)[C@H](c4ccoc4)OC(=O)C4OC43[C@@]21C (stereo partly drawn) [3alpha-hydroxydeoxodihydrogedunin] | 0.835 |
| methyl 7-deshydroxypyrogallin-4-carboxylate | 1.034 |
| CC(C)=CCc1c2c(c(O)c3c(=O)c(O)c(-c4ccccc4)oc13)C=CC(C)(C)O2 [sericetin] | −1.140 |
| COc1ccc(-c2cc(=O)c3c(O)cc(O)cc3o2)cc1O [diosmetin] | −0.756 |
| OC[C@H]1O[C@@H](O[C@H]2[C@H](O)[C@@H](O)[C@H](O)O[C@@H]2CO)[C@H](O)[C@@H](O)[C@@H]1O [cellobiose (D[+])] | 1.049 |
| CCCCC[C@H](CC(=O)O)C(=O)O [nonic acid] | 0.366 |
| Cc1occc(=O)c1/C=C/O [2-methyl-3-hydroxyethylenepyran-4-one] | −0.367 |
| COC(=O)C[C@H]1C(C)(C)[C@@H](O)[C@@H]2CC3=C4CC(O)O[C@@H](c5ccoc5)[C@]4(C)CCC3[C@@]1(C)C2=O (stereo partly drawn) [3,16-dideoxymexicanolide-3beta-diol] | −0.547 |
| 3,7-epoxycaryophyllan-6-one | −0.022 |
| COc1ccc2c(c1)OCC(Cc1ccc(O)c(OC)c1)C2=O (centres unmarked) [deoxysappanone b 7,3′-dimethyl ether, reference compound] | −1.027 |
| COc1cccc(C=CC(=O)O)c1C(C)C [2-isopropyl-3-methoxycinnamic acid] | −1.528 |

Counter-ions that a name gives are not always drawn. Where a SMILES comes first, the peptide text is derived from it.
